# The supplement of paper PMC3334620
# Over roughly 33,000 sequences, “E-score (-0.5 to 0.5)” has its median near -0.012; the highest 2% begin near 0.27. The list shows a part of the results.
# Target: T1, Vhr1 (UniProt P40522)
# T1 sequence: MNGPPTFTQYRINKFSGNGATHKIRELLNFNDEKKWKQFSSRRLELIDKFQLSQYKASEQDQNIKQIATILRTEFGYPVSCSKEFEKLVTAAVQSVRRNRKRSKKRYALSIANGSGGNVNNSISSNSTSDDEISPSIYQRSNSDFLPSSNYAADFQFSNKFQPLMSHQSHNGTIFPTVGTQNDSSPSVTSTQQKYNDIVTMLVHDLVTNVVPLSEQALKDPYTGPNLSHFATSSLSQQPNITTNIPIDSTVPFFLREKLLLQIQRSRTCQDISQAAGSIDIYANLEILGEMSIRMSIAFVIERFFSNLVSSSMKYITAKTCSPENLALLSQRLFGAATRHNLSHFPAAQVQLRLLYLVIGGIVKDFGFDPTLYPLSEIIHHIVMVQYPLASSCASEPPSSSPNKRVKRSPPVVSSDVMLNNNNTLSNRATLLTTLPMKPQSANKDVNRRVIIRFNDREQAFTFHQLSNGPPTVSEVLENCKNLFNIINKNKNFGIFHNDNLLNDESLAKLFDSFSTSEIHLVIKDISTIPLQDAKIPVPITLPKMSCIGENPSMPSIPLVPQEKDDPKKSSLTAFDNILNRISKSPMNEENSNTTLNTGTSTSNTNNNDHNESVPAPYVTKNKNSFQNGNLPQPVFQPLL
# Assay: PBM E-score (8-mer binding enrichment) (E-score (-0.5 to 0.5)); higher = stronger / more preferred TF binding; most listed sequences are background and not binding sites
# Conditions: protein concentration: 200 nM; construct: GST-full length
# In short: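 Universal all-10-mer Agilent arrays, double-stranded by primer extension on fresh or once-stripped slides, were probed with about 100-200 nM GST-tagged yeast transcription factors made by PURExpress. Fluorescent anti-GST detected bound protein, and masliner normalised the scans. E-scores from the Universal PBM Analysis Suite were given to each ungapped eight-base word pooled with its reverse complement.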
row,Sequence,PBM E-score
1,GTAACAGA,0.182
2,CGTTACAA,-0.0675
3,GTGCTGAA,0.0433
4,GTCCCGAC,0.143
5,ACCGACGA,0.127
6,CTATCCTC,-0.121
7,ATATCGGC,-0.047
8,TACCAGTA,0.0965
9,GGAAGTAC,-0.0604
10,ACCGCGGT,0.0486
11,CCCTTCCG,-0.175
12,ATATATCC,0.273
13,AGGTAGAT,-0.0719
14,CATTAGGA,-0.0276
15,GGGTGGAA,-0.104
16,GGTCGTAC,0.0468
17,TATTAAAA,0.129
18,GAAGACTC,0.229
19,AAAAGATG,-0.0941
20,CAGAACCA,-0.0201
21,CCGAGATC,0.0839
22,GATCGTAA,-0.174
23,AACGCGAT,-0.121
24,ATTAGAAT,0.0307
25,CGCCAGAG,-0.0444

row,Sequence,PBM E-score
1,CTGCAAAA,-0.203
2,ACGCATTG,-0.113
3,ATTACAGC,-0.00665
4,GACGTCGC,-0.0779
5,CATGGGCC,0.102
6,CCCAACTC,0.134
7,CAAGGTTC,-0.238
8,AAAACCTT,-0.177
9,GACAAGAA,-0.153
10,CACCTGCC,0.129
11,AGATGTAT,0.133
12,ACAGAATC,-0.00235
13,ACCTGGTG,0.165
14,AAAGGAGT,0.0366
15,GGTCCAAC,-0.0911
16,AATCGCGG,0.0545
17,GACTGAAC,0.0799
18,CGTCAGGA,-0.0893
19,GATGTACA,0.17
20,TAACTCGA,0.114
21,AACTTGTC,-0.19
22,CAGTAGCG,0.146
23,CTAGGTAA,0.0578
24,ACCGCTAG,-0.061
25,AAACGAGG,-0.161

row,Sequence,PBM E-score
1,ACACGTGA,0.00293
2,TATATTAA,0.243
3,ACTGCGAC,0.209
4,ACTGTTAA,0.0716
5,CTCTAGAG,-0.265
6,AATCTGCG,0.09
7,AACAGTAA,0.143
8,ACTAGAGT,0.0036
9,CCCTTTAC,-0.146
10,AAAAAGTA,0.00228
11,ACAGCTCT,-0.114
12,ATCGAGGC,-0.154
13,ACGCCCGC,-0.0159
14,AACTTTCG,-0.349
15,GATGACAC,0.157
16,CAACGATG,0.0466
17,AATGGATA,0.0689
18,AGGAAAAG,-0.147
19,GTCTGTCA,-0.0786
20,CCCTCTGA,0.0375
21,CATCGTCA,0.192
22,GTGGGCCA,-0.106
23,GTTCAGCA,-0.00052
24,CTAAACGC,-0.171
25,GCATGGGC,-0.0393

row,Sequence,PBM E-score
1,TACCACCA,0.083
2,ATTTCTGA,-0.152
3,AAGCCCCC,-0.408
4,GGCCTGCA,-0.165
5,ATACTTAG,-0.0208
6,AGTTTTCG,-0.106
7,GGGGCAAC,-0.123
8,CCCTCATA,-0.0983
9,TGCTCGAA,-0.0601
10,CCCTAAAC,-0.183
11,ATAGAATG,0.056
12,CGCGAGCA,0.00371
13,GTTTCTGA,0.0708
14,AGACTAAC,0.0491
15,ACCGTAAC,-0.0106
16,AACCAGAT,0.172
17,GGGAGTTA,-0.144
18,CGGACCAA,0.0443
19,CGGGTCTC,0.148
20,AGTGGTGG,0.097
21,GAGCTGTA,-0.229
22,CCCTGTTA,0.0326
23,GGCGGCAC,0.134
24,CATGTGCG,0.0753
25,AAATAAAT,-0.133

row,Sequence,PBM E-score
1,CGTCACTC,-0.0595
2,TCACGCAA,0.0179
3,AGGGGCTA,-0.0328
4,CGTGCCAA,-0.065
5,ATTGTAAA,-0.0424
6,ATTCAACG,0.015
7,ACCTATAC,0.116
8,ATGGACTC,0.191
9,TATAGATA,-0.117
10,CTGGGTCA,0.11
11,AATGTGGT,0.115
12,CGGACTCA,0.381
13,TAACAAGA,-0.253
14,AATAACCC,0.0809
15,GGACTCCC,0.0918
16,AAATACAG,-0.0233
17,GATATGAC,0.197
18,ACCTTCCA,-0.17
19,AGGGCTTA,-0.268
20,ACGACCTA,0.143
21,ATGCAGTG,0.276
22,AATTCGCT,0.133
23,AGCGTGAG,0.0864
24,ATACTCAA,0.178
25,CTCCAACA,0.126

row,Sequence,PBM E-score
1,CATACGAC,0.0203
2,CATTAGGC,-0.189
3,AGTTCAAC,0.131
4,CATGCCGA,0.214
5,AGTCTACA,-0.125
6,CAACTGTG,-0.151
7,AGGGGGCG,-0.0762
8,AGACCTAA,-0.0314
9,CAATCCCC,0.0337
10,TCTAGAAA,-0.272
11,TAATACGA,-0.0262
12,CTCTATAC,-0.164
13,AGCGCTAA,-0.0398
14,AAGTTAAG,-0.373
15,ATTAGTGG,0.141
16,ACCGTTTA,-0.0693
17,ACCTCAGT,0.0616
18,AGTGAGTC,0.466
19,AAGCGTTA,-0.16
20,ATTTAGAG,0.0088
21,GCCCTTCC,-0.294
22,CAATTTGC,-0.192
23,GCTGGTCA,-0.107
24,ATATGCAG,-0.0948
25,CCTCAAAG,-0.165

row,Sequence,PBM E-score
1,AGCAGTGA,0.167
2,AGGGTCGA,0.158
3,AACTGTCT,0.0639
4,CCGTTTAG,-0.0628
5,ATGGTGGA,-0.00384
6,GCAAGATA,0.00244
7,CCTGTGGA,-0.166
8,GTGCTGGA,-0.102
9,CTAGATGA,-0.0565
10,CAGGCACA,-0.0257
11,AGAGGTGC,-0.158
12,GAGGTTTA,-0.0416
13,GTAATAAC,-0.0132
14,ACGCTAAC,-0.0278
15,GCGACCGC,0.0978
16,ATGCCGGC,-0.153
17,GACGCCAC,-0.0198
18,ATCGGACC,0.0111
19,GTAGCAGA,-0.131
20,CCCCCAAC,-0.181
21,ACCCCGCG,0.0106
22,AAGGAAGC,-0.153
23,TAGAACCA,-0.0903
24,ACGTCGAT,-0.0387
25,ACTAACTC,0.03

row,Sequence,PBM E-score
1,ACTTGTCT,-0.106
2,ATTCTCCA,-0.0263
3,AGACGGGA,0.107
4,CCCCCACA,-0.28
5,CCACGCCC,-0.108
6,ACCAATCA,0.147
7,GTCTTTCA,-0.0537
8,ACAGACAT,0.168
9,ACGTTTGC,-0.0799
10,TACCATGA,0.0938
11,AGGGCCCG,0.0628
12,CTGATAAG,-0.0476
13,CAATTAGC,-0.00377
14,CCGTCATA,0.139
15,ACACTTTA,-0.0402
16,ATCTTTCG,-0.0102
17,AACAGTGG,0.104
18,CCTACCCC,-0.155
19,GATAGTAC,0.199
20,CTGCCGAC,0.209
21,ACATAAAA,-0.0866
22,AAATCAGA,0.0175
23,CCCCGGAA,-0.271
24,CAACCTGG,0.182
25,GCGAAGTA,-0.0716

row,Sequence,PBM E-score
1,ACCGGGGC,0.117
2,CACGGTGG,0.273
3,ACGGTGAC,0.165
4,ATCGACAC,0.138
5,CTTCACAA,-0.282
6,ACAATGAG,0.122
7,CCACGCTC,-0.142
8,AAGCGGAC,-0.0493
9,ATTCGCTG,0.154
10,AACCGCTT,-0.0717
11,ATCGGGAG,0.0461
12,GACCGCGC,0.0329
13,CGAGAAAC,-0.104
14,TCTCTCCA,-0.0643
15,TCCCAGAA,-0.214
16,CCTTACTA,-0.155
17,ACACTGTA,0.19
18,ATTATTTA,0.0549
19,ATATTCGA,-0.0743
